Laboratory results: patent publication US20250340636A1, “ANTIBODIES TARGETING L1CAM AND USES THEREOF” (MEMORIAL SLOAN-KETTERING CANCER CENTER, priority 2023, published 2025)

Key:
human NrCAM = biological target: T1, human NrCAM (Homo sapiens, UniProt Q92823); experiment: Selectivity ELISA, NrCAM; format: binding; conditions: for binding to NrCAM: 1 μM antibody; for Binding to human NrCAM: at 1 μM
T1 construct: human NrCAM (residues 30-600 with a C-terminal human IgG1 Fc tag, R&D Systems); purchased R&D Systems
T1 sequence (Q92823 30-600): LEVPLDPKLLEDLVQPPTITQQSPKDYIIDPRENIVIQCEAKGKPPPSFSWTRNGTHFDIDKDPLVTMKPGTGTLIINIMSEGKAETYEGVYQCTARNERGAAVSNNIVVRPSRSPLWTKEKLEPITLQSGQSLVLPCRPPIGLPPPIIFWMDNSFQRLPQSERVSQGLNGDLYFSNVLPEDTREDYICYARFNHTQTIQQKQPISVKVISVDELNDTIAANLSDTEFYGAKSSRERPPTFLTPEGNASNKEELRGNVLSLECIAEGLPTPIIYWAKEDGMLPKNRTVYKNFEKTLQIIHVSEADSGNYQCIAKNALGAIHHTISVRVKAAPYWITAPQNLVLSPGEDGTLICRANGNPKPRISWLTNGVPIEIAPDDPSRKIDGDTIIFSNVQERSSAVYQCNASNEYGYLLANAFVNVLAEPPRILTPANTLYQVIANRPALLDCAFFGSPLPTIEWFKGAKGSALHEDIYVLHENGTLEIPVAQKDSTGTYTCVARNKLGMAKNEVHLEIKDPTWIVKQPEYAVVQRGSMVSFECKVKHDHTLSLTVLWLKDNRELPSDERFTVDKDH
Source text: (§1) Selectivity. […] These proteins are other members of the L1 family of cell adhesion proteins and have between 49% and 55% sequence similarity with L1CAM in the extracellular portion. […] Positive control antibodies were included for each homolog. […] Epitope. The extracellular portion of L1CAM contains six immunoglobulin-like (Ig) domains and five fibronectin type III (FN) domains. To narrow down the binding region of the development candidate mAbs, truncated versions of human L1CAM protein (Ig domain, residues 21-605; FN domain, residues 606-1116; each with a C-terminal 6×His tag) were recombinantly produced, followed by a BLI experiment to test binding at 50 and 100 nM. […] 6×His tag is set forth in SEQ ID NO: 316.

[1] = pH 6
human CHL-1 = biological target: T2, human CHL-1 (Homo sapiens, UniProt O00533); experiment: Selectivity ELISA, CHL-1; format: binding; conditions: for binding to CHL-1: 1 μM antibody; for Binding to human CHL-1 (L1CAM2): at 1 μM
T2 construct: human CHL-1 (residues 25-1096 with a C-terminal 10×His tag, R&D Systems); purchased R&D Systems
T2 sequence (O00533 25-1096 isoform O00533-2): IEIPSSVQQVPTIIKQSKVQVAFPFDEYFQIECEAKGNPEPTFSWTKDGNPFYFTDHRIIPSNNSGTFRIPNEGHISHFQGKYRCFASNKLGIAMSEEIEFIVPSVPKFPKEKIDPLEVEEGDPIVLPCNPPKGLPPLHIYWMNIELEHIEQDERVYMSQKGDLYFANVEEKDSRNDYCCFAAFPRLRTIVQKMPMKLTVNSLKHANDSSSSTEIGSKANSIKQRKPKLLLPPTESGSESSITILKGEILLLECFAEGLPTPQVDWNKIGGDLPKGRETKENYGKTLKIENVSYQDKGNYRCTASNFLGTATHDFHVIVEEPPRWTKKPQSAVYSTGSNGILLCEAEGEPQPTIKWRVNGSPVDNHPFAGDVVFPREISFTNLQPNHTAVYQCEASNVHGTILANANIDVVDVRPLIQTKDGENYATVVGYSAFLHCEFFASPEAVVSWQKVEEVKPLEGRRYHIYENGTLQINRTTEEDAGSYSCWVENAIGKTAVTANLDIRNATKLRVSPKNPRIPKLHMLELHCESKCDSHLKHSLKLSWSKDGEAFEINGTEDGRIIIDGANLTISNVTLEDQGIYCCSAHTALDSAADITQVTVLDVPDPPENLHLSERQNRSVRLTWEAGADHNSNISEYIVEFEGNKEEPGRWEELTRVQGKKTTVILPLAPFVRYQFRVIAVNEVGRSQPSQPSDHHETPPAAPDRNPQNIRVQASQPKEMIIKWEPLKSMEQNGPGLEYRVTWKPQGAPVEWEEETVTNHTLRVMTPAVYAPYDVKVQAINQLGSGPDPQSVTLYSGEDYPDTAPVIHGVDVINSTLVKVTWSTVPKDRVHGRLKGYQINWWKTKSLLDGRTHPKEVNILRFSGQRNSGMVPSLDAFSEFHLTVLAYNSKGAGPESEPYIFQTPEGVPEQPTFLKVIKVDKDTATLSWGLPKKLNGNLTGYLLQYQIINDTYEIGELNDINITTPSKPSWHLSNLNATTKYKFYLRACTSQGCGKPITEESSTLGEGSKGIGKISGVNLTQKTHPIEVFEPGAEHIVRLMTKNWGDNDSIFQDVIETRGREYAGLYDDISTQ
Source text: as §1

[2] = system: MDA-MB-231-LM2 cells, lung metastases; experiment: MDA-MB-231-LM2 lung metastasis; format: in vivo; conditions: MDA-MB-231 tail vein injection model, mouse
Source text: MDA-MB-231-LM2 breast cancer cells were introduced via tail vein injection into athymic mice to generate lung metastasis. […] FIGS. 27A and 27B show tumor growth monitored on a weekly basis.
MDA-MB-231-LM2 Lung Metastasis. To assess the efficacy of the L1CAM ADCs in the context of an intact tumor microenvironment, 5×10^4 MDA-MB-231-LM2 cells were introduced via tail vein injection into athymic mice to generate orthotopic lung metastases.

B1: TDI-Y-004 (antibody)
heavy: QVQLVQSGAEVKKPGSSVKVSCKASGYTFTNYYIHWVRQAPGQGLEWMGKIGPGSGSPYYQGMFKDRVTITADESTSTAYMELSSLRSEDTAVYYCARWLLPFDYWGQGTLVTVSS[human IgG1 constant region not printed]
light: EIVLTQSPGTLSLSPGERATLSCRASSSVNYMHWYQQKPGQAPRLLIYATSILASGIPDRFSGSGSGTDYTLTISRLEPEDFAVYYCQQFSSDPLTFGGGTKVEIKRTVAAPSVFIFPPSDEQLKSGTASVVCLLNNFYPREAKVQWKVDNALQSGNSQESVTEQDSKDSTYSLSSTLTLSKADYEKHKVYACEVTHQGLSSPVTKSFNRGEC
Human NrCAM
  binding to NrCAM: No binding
  Binding to human NrCAM: No binding at 1 μM
[1]
  concentration at which the antibody is soluble: up to 100 mg/ml
Human CHL-1
  binding to CHL-1: No binding
  Binding to human CHL-1 (L1CAM2): No binding at 1 μM
[2]; ADC with cleavable linker
  Tumor control: >85% tumor control
[2]; ADC with non-cleavable linker
  Survival: 100% survival
  Tumor control: > 99%
  Tumor recurrence, days after last dose: No tumor recurrence up to 48
  Tumor regression: complete

B2: TDI-Y-005 (antibody)
heavy: EVQMVESGGGLVQPGGSLRLSCAAPGFIFSSYNMNWVRQAPGKGLEWVSYISSSSSTTYYADSVKGRFTISRDNAKNSLYLQMNSLRDEDTAVYYCASLYSGYDYYYYYGMDVWGQGTTVTVSS[human IgG1 constant region not printed]
light: DIVMTQTPLSSPVSLGQPASISCRSSQSLVHSDGNTYLSWLQQRPGQPPRVLIYKISKRFSGVPDRFSGSGAGTDFTLKISRVEAEDVGVYYCMQATQFPFTFGPGTKVDIKRTVAAPSVFIFPPSDEQLKSGTASVVCLLNNFYPREAKVQWKVDNALQSGNSQESVTEQDSKDSTYSLSSTLTLSKADYEKHKVYACEVTHQGLSSPVTKSFNRGEC
Human NrCAM
  binding to NrCAM: No binding
  Binding to human NrCAM: No binding at 1 μM
[1]
  concentration at which the antibody is soluble: up to 100 mg/ml
Human CHL-1
  binding to CHL-1: No binding
  Binding to human CHL-1 (L1CAM2): No binding at 1 μM
[2]; ADC with cleavable linker
  Tumor control: >85% tumor control
[2]; ADC with non-cleavable linker
  Survival: 100% survival
  Tumor control: >99% tumor control,
  Tumor recurrence, days after last dose: No tumor recurrence up to 48 days
  Tumor regression: complete regression
